Results on 72 sequences are retold here after publication PMC10726135.

This is one part of the list. At the low end of the ranking, values are background and their order means little. The protein was read in a cell extract, so binding may be indirect.

This experiment deals with T1, HNF4alpha8 (COS-7 nuclear extract) (UniProt P41235-5).
T1 sequence: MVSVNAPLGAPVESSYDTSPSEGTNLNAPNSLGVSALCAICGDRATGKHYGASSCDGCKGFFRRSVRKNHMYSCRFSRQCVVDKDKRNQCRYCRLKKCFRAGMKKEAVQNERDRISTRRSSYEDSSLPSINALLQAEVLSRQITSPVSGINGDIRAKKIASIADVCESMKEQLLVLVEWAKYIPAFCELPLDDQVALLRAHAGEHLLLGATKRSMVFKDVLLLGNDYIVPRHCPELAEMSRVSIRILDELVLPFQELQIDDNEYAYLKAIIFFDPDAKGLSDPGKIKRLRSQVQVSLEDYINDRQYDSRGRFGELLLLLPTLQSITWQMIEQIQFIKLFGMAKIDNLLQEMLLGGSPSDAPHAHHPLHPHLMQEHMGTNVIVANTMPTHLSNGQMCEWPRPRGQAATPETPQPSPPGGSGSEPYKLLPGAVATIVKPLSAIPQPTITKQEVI
The experiment is described as follows: protein-binding microarray. The note with it: COS-7 nuclear extract on double-stranded Agilent 4x180k PBM; binding buffer, salt, pH and temperature not given; high values mean tight binding; double strand, one strand shown; sequences stand for … in …GCCTAGGGAGATTAGAGTATCGGTCGA
Take ATTGTACAGGTTCCCTCATGATTTAGTAAG: the binding signal (log2 normalized intensity) was 0.138.
As to AACCTAGACAGAAGCTTTCTGAGAAACTTC, the binding signal (log2 normalized intensity) is -1.31.
With CAGGGTCTAGCAGTGCAGCGGGGTCAGAGA the figure was 2.7.
GCATGGTGATGCTAGCTACTACATGATGCT: the binding signal (log2 normalized intensity) is -1.3.
With TCCTTGTCTGTTTGGCCTTAGGTCCTTTGA the figure was 2.56.
Regarding CCAACAGTTGAGAATTCCAGAGATGCCAGG, the binding signal (log2 normalized intensity) was -1.26.
For TCTGGGCCTGGCAAGACTTCTTCAGGGAGA, the binding signal (log2 normalized intensity) was -1.21.
Next, TCTGCCTTTTATCTATTTGTCGCCTCTGAC: 0.313.
With TTTCCTGCCCCTTCACATATTTTGAAAGAA the figure was 1.43; with CTTGCTTAGGATAGGGTCAGTCTTTGTTCT, 2.28.
Turning to AGATGAGCCAGGCCAACACCAAGCAAGCTC, the binding signal (log2 normalized intensity) is -1.3.
For the sequence GGTTCCCACAGCCCAACTCGGAGGACTGAG, the binding signal (log2 normalized intensity) is -1.36.
Next, TGCACTTTACTCAGAAAGGTCAGCGCTTTG: 1.68; ACCTGGCCTGCGGGGTCAGGCCGTGGTGTA: 2.54.
With AGCAAGTCAGATGGCCAAAGTCAACATTGA the figure was 0.939.
On to GAGTTCTAAGAGCCTACTGAGAGGAAAGGG, for which the binding signal (log2 normalized intensity) is -1.38.
With CGTAAATGCACGGAAGCCTTCCCCGCCCGC the figure was 3.1; with GCTGGTCAAAGGGCATTACTTGCTGGAGAA, 3.83.
Next, GACAGGGGAGATAAGGCCCGGCTGATGGGA: -1.28; TGTATTCCCTCTCTTCAGAATGGCCTGCCC: 1.93; TTACAACGCTGTTGTCTGTGACTGGGGTCA: 4.26.
Next, TCAAGGGAATCTGCTGTAATAAAGCCTTAT: -1.27.
Take GAATACTGCTGGGTCAGTTTATCTAAGATT: the binding signal (log2 normalized intensity) came out at 1.06.
Next, AAATAAGGATAAAGTAAGGTGAAGCCCAGC: -1.36; CATGTCTAAAGGCTGTGTCGGTATAAGTTC: 1.67.
With CTTTGTAGCACTTTGGACCTCCACTTTGGA the figure was 3.36; with CTGTACCAATTATTGCGAGTTTAGGAGGGT, 0.678.
With CAGCAGGCCAGGCCAAATCAGAACTGAGTT the figure was -1.39.
Take CAAATGGAGAAGGTCTAAGTAAACTGTTCA: the binding signal (log2 normalized intensity) is -0.633.
Next, AAAGCGCAGCGCGGGGCTCAAAGGCGGCCC: -1.23; GGTAAAGGTGAAGGCTGACCACGGGGGCCG: -1.35.
With CACCTTAGAGGGACGAAGGTCACTAATTGG the figure was 3.69; with TTGGGTCACAATCACAAATGCCTTCAGGGG, 0.936.
As for CTCTCTTTCTTCCCCCACTCCAAGTTCCTT, the binding signal (log2 normalized intensity) amounted to 3.92.
TACACAGACCCTCTTTTCTTTGTACCGTAT: the binding signal (log2 normalized intensity) was 2.09.
With TCCGGAAACGTATGACTTTGGAGCACTCAT the figure was -0.716; with CACAGAACAAACAGTACATTCTGGAATGAT, -1.33; with TCTGATGCCATGATAAGCAGTGTGGACTTT, 7.54.
On to CAGTAAAAGCTCTACCTGACCTCCCAAAAT, for which the binding signal (log2 normalized intensity) stood at 2.26.
For GCGAAGGCAGTGTGGCACCCTCCCTTCCCG, the binding signal (log2 normalized intensity) was 2.77.
Next, TCCAGGAGTATGTGTTTGCTTTACCTTAGT: 1.07; TGAGTCTGGTGTTTCCCTGTTTGCTTCTGC: 1.01.
CTACCTCTTAGCTACCCTGTTTACAATGGA: the binding signal (log2 normalized intensity) was determined as 1.45.
AGATTCTGCAAACCTATTAATATATTCATA: the binding signal (log2 normalized intensity) is -0.929.
Next, CCCGGCAGCCCTGCTCCCCGCCTTGGCCTC: 1.68; TGTTTGACGACTGTCTGCCATGGGCCTGGC: -1.05; TCATTGCACAGTTACTCCACAACTTGTTCT: 0.0687.
Turning to TAATATCTAAGATGTAGCTGCAAAGATAAG, the binding signal (log2 normalized intensity) is -1.26.
In the case of TGCTTAAGTGGCTCACCCAAGTCACACAGT, the binding signal (log2 normalized intensity) was -1.26.
Next, ATTGGCTGTTTAGTAGAGAGCAGGTACCAC: 0.492; TATGCAAATGTTATGGCTGGTTTGGTCTTT: 2.76.
On to CAGCAGAGAGTTTTCCTTGGCTGTGCTGCC, for which the binding signal (log2 normalized intensity) is -1.16.
With ACCGCCTACCTTTGGACTTCTCATTACATG the figure was 3.42; with GGTTAGAATCCTTATCTGGTGTGCTTTCTG, 1.76; with GCGCCAATACCTGCCGCGCGGGGCGCCTCC, -1.27.
In the case of TCCGAGATAAGGCGTCTTATCAGCCCCCAT, the binding signal (log2 normalized intensity) was determined as 3.96.
With AGATAAGAGCCACCCTCAAATCAGTGAAGG the figure was -1.38.
Next, CAGTACAAATAAACCTTTGACCAATTGACC: 4.34; AGTTTGACCTGGAGCCAGGGCCTTTTCAAG: -1.15.
Next, ACTCATGGGCAAGATGGCTCTCCCGGGGCG: -1.17; GCTGAGAGAGTCCTTGTTTGGTTAGTGCTG: 0.499.
With CAAAGGATGGAAGCTCTGAAAGCTTCAAAG, the binding signal (log2 normalized intensity) is -1.36.
With AATGAGGCGACATCAAAGCATTTGGAGATT the figure was -1.25; with GTATCTTGTCTGACTGTGATACCAGGGGTC, 3.75; with AGTGTCACAAACTATCAGTGAAGAGCAAAC, -1.46.
For ACCAGCCCACTCTTAGCAGAGATTCCTGCT, the binding signal (log2 normalized intensity) is -1.36.
With GGCCTGGTTCGGGATTATGGCCGGCCCCTG the figure was 0.388; with TCACCTGGCTCTGAAAAACAAAATGCATTT, -0.57.
Next, GGTGAAGCTTGGGCAGCACAGCCTCCCTGT: -1.22.
Next, CTCACCAGTGGGCCCAGAGCACAACCTTTG: 1.42; CCATGACGCAAGCGAGTAAGGCCCGTGAGA: -1.4; TCCTTTGGTGCAAATACCATCCCCAGAGCC: 1.92.
